According to the RNAGym collection of RNA variant scans (doi:10.1093/nar/gkz1192):
The source gives no read counts; variants with many changes may rest on few reads.

B1: CPEB3 Ribozyme (parent)
chain: UAACAGGGGGCCACAGCAGAAGCGUUCACGUCGCAGCCCCUGUCAGAUUCUGGUGAAUCUGCGAAUUCUGCUGUAUAUCUC

Variants of: B1
Test: self-cleavage, relative activity (ratio to wild type); higher = more cleavage; in vitro, sequencing
In short: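 After error-prone PCR and barcoding, CPEB3 ribozyme mutant libraries were transcribed with T7 RNA polymerase at 37°C for 5 hours, then given 15 min with DNase I before an EDTA stop, and they cleaved during both steps. Reverse transcription with template switching preceded Illumina sequencing. Relative activity divides a variant's cleaved/total read fraction by the unmutated ribozyme's. At least 5 reads were required per variant, and three batches were averaged.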
Variant A18G A64G C68A has a self-cleavage of 0.24.
A18G A35G U66C showed a self-cleavage of 0.66.
In the case of A18G A28C C29U A57U, the self-cleavage is reported as 0.27.
Variant A18G G22A U25C has a self-cleavage of 0.28.
A18U A28C U51A U72C gave a self-cleavage of 0.21.
For A18G U48C U74C, the self-cleavage was 0.25.
Variant A18G U25A A45U U72A U78C has a self-cleavage of 0.34.
For A18G U43C U51A A64G U69G U72C, the self-cleavage was 0.1.
Variant A18U C23U U54C has a self-cleavage of 0.28.
A18U U25A A64U showed a self-cleavage of 0.39.
A18U U41C U58C G61A C79U gave a self-cleavage of 0.18.
Variant A18G A21G A28G G30A A47G G61C U66C has a self-cleavage of 0.03.
Work on A18U U26C A28U C32U A57G U76C U80C yielded a self-cleavage of 0.03.
For A18U U26A U69C A75G, the self-cleavage was 0.18.
For A18U G19A G36U A47G U69G, the self-cleavage was 0.09.
With A18G A56G U60C U78A the self-cleavage was 0.23.
Variant A18G U43C U69A A77G has a self-cleavage of 0.32.
Work on A18U G22C U72C yielded a self-cleavage of 0.27.
Work on A18G A28C U31C C32U A45G A65U yielded a self-cleavage of 0.04.
With A18G G30A A45C A64G the self-cleavage was 0.23.
A18U U41C A56G U76C showed a self-cleavage of 0.43.
For A18U A20G U72C, the self-cleavage was 0.4.
A18G U25C G46U U51C U54A gave a self-cleavage of 0.26.
A18U U31C G63A U67C U72A showed a self-cleavage of 0.09.
Variant A18G G61A U66C has a self-cleavage of 0.1.
Work on A18G C27A A56U A57G U66C U69C U72C yielded a self-cleavage of 0.12.
Variant A18U C39A U72A has a self-cleavage of 0.18.
For A18G U43C C44U U51G, the self-cleavage was 0.11.
In the case of A18G C34A C39G A56G U69A, the self-cleavage is reported as 0.06.
For A18U A21U A56G U69A, the self-cleavage was 0.35.
With A18U A35U A57U the self-cleavage was 0.11.
Variant A18G U58A A65G U67A U72C has a self-cleavage of 0.09.
For A18U C29G U41A, the self-cleavage was 0.16.
With A18G A65U U66C U72G U76C the self-cleavage was 0.2.
With A18G U31C C71G the self-cleavage was 0.12.
In the case of A18G A21U A56G A64U C68U, the self-cleavage is reported as 0.05.
A18U U26C U60A A75U U76A showed a self-cleavage of 0.25.
In the case of A18U C32U U54A U72A, the self-cleavage is reported as 0.1.
In the case of A18G G19A U49C, the self-cleavage is reported as 0.2.
In the case of A18G C39U C71A U76C U80C, the self-cleavage is reported as 0.08.
Variant A18G A56G U69A has a self-cleavage of 0.36.
A18G A35G A64U gave a self-cleavage of 0.37.
A18U U41G U66C U67C A77G gave a self-cleavage of 0.2.
Work on A18U A20U C79G yielded a self-cleavage of 0.05.
In the case of A18G U41C G55U, the self-cleavage is reported as 0.51.
Work on A18G C23A U41C G55C A57G U76A yielded a self-cleavage of 0.13.
A18G A28G G42A A47G U48C A57G U76A gave a self-cleavage of 0.
For A18G U60C U67C U78A, the self-cleavage was 0.13.
In the case of A18U A20G U54C A64U, the self-cleavage is reported as 0.13.
For A18G G22A U76A U78A, the self-cleavage was 0.09.
For A18U A45U A47G U60A, the self-cleavage was 0.22.
Variant A18U A20U U49A has a self-cleavage of 0.47.
For A18U A28U C29U A35U U67C, the self-cleavage was 0.07.
A18G A35G U43C A57G U72C showed a self-cleavage of 0.64.
A18G A35G C68A U69C showed a self-cleavage of 0.94.
With A18G U31A U69A U74G the self-cleavage was 0.12.
With A18G C23U U31A U80G the self-cleavage was 0.08.
A18G A28G U72G showed a self-cleavage of 0.2.
Variant A18G C29U A45C U60C U66C has a self-cleavage of 0.11.
A18U C39A U48C A64G U67C C81U showed a self-cleavage of 0.24.
For A18U A57G A65G, the self-cleavage was 0.2.
A18G U41A A65U U74C showed a self-cleavage of 0.06.
In the case of A18G G24U U25C U31A U41C, the self-cleavage is reported as 0.17.
Work on A18G C32U A45G yielded a self-cleavage of 0.24.
A18U C27U A45U U49A A64U gave a self-cleavage of 0.05.
Work on A18U U41C A56G A64G U72A yielded a self-cleavage of 0.22.
Work on A18G A21G A45G U66A U72A yielded a self-cleavage of 0.15.
Variant A18G A21G A45G U51C U54C U58A U74A has a self-cleavage of 0.25.
Variant A18U G33A A35U has a self-cleavage of 0.15.
For A18U C62U A64U A77C, the self-cleavage was 0.25.
For A18G A64G A77G U80C, the self-cleavage was 0.55.
A18G U26A A64G showed a self-cleavage of 0.36.
A18U C23U G30A C38U U60C U72A gave a self-cleavage of 0.06.
With A18G U25A A45G U48C U80C the self-cleavage was 0.42.
A18G G55C A64C U69G gave a self-cleavage of 0.16.
A18U C23U U80A gave a self-cleavage of 0.2.
With A18G A28G G33C U72A U74A the self-cleavage was 0.18.
Variant A18U G19A U60G has a self-cleavage of 0.05.
A18U U26C U51C gave a self-cleavage of 0.05.
Variant A18U U31C U41C U69C has a self-cleavage of 0.13.
For A18G C62U U69A U72C, the self-cleavage was 0.21.
With A18G G63U U66C the self-cleavage was 0.2.
Variant A18U A20G U78C has a self-cleavage of 0.23.
Variant A18U A35U U41A A57U U72C U80C has a self-cleavage of 0.06.
A18U A47C A64U gave a self-cleavage of 0.05.
A18G G24A A56U A64G gave a self-cleavage of 0.13.
Variant A18G C59U A64U has a self-cleavage of 0.23.
For A18U G24A U80C, the self-cleavage was 0.07.
Work on A18U G22U U49C A57G U69A yielded a self-cleavage of 0.08.
Variant A18G A45C A56U has a self-cleavage of 0.14.
For A18U A20U G46A G63U, the self-cleavage was 0.09.
Work on A18U U26G A57G yielded a self-cleavage of 0.08.
A18G A57U U69C gave a self-cleavage of 1.06.
With A18U G33A G36C U54C the self-cleavage was 0.13.
Work on A18G U48C U60C U69C U72C yielded a self-cleavage of 0.13.
For A18G U26C U43C A56G U67C U69C, the self-cleavage was 0.34.
Variant A18U A21G A45G U60C U69A has a self-cleavage of 0.59.
A18G C27U U31A A56U U60A G61C showed a self-cleavage of 0.09.
With A18G U49C A57G A65G U69C the self-cleavage was 0.02.
Work on A18U U25C U26A G30A A64G C81A yielded a self-cleavage of 0.28.
A18U A20G U80C gave a self-cleavage of 0.57.
Work on A18U A45G U80C yielded a self-cleavage of 0.47.
A18G C23G U72A U78C U80A gave a self-cleavage of 0.08.
For A18U U43C U48G U69A, the self-cleavage was 0.26.
Work on A18G U26C A64U A65G yielded a self-cleavage of 0.09.
For A18G C38U U67C, the self-cleavage was 0.33.
With A18G A28G U54A C62A U76C the self-cleavage was 0.12.
Work on A18G A28G U31A yielded a self-cleavage of 0.06.
A18U A20U G46U A47G U78C showed a self-cleavage of 0.16.
Variant A18G C27U A47G has a self-cleavage of 0.49.
For A18G A57C C68U, the self-cleavage was 0.34.
A18U U41C U49C showed a self-cleavage of 0.17.
A18U U26C G36U U72C gave a self-cleavage of 0.05.
A18G U25C U51C A56G U76C A77G gave a self-cleavage of 0.12.
Variant A18G U41C A57G U66C U78C has a self-cleavage of 0.2.
A18U A21G U25C U41G U58C gave a self-cleavage of 0.12.
For A18G A21G U43G, the self-cleavage was 0.38.
A18G G33A A35G U72A gave a self-cleavage of 0.13.
Variant A18G U49A A64G U66C U76A has a self-cleavage of 0.24.
For A18U U25C A35G U48C, the self-cleavage was 0.08.
Variant A18G C40A U41G U78C has a self-cleavage of 0.06.
For A18U G33U U49C A65G, the self-cleavage was 0.07.
For A18G U25A U69C C81U, the self-cleavage was 0.18.
Variant A18U U25C A65G has a self-cleavage of 0.24.
For A18G U25C A35U U51C, the self-cleavage was 0.09.
Variant A18G U25C A65G U80A has a self-cleavage of 0.12.
A18G G42U U78C gave a self-cleavage of 0.42.
In the case of A18G A28G A45U U48C, the self-cleavage is reported as 0.17.
Variant A18U G33A A47C U67C has a self-cleavage of 0.08.
For A18G C23A C38G A45U U48C G63A A77G, the self-cleavage was 0.1.
Variant A18G A64G U74C U80C has a self-cleavage of 0.77.
With A18G A64G U66C A75G the self-cleavage was 0.2.
Variant A18U G36U U41C U43C has a self-cleavage of 0.17.
For A18G U72A U80C, the self-cleavage was 0.83.
Variant A18G C23U U54A U60A A77G has a self-cleavage of 0.05.
A18G A21G C38U A56G gave a self-cleavage of 0.18.
Work on A18G A28G G36C U48C A57G A65C yielded a self-cleavage of 0.09.
With A18G C29U A35G A45U U48G U69A U78C the self-cleavage was 0.06.
In the case of A18G A28C U78C, the self-cleavage is reported as 0.24.
Work on A18G C37U U49A U66C yielded a self-cleavage of 0.12.
Work on A18G U43C U74C yielded a self-cleavage of 0.2.
A18U U31A U66C showed a self-cleavage of 0.19.
For A18U A28G U41A U72C U74C A75G, the self-cleavage was 0.24.
Work on A18U U25A U26C C40U yielded a self-cleavage of 0.14.
Variant A18G C40U U43C U49A U67C has a self-cleavage of 0.12.
A18U U26C U31C U58A A64G showed a self-cleavage of 0.15.
A18G U26A A45U showed a self-cleavage of 0.17.
A18G U41C C44U showed a self-cleavage of 0.27.
In the case of A18U A35G A64G, the self-cleavage is reported as 0.39.
Work on A18G U26A A77G yielded a self-cleavage of 0.74.
In the case of A18G A64G U66C, the self-cleavage is reported as 0.27.
Work on A18G A28G U41A A77G U78A yielded a self-cleavage of 0.17.
In the case of A18G G46U U72C, the self-cleavage is reported as 0.46.
A18G G19U U41C A56C gave a self-cleavage of 0.34.
A18U A64U A75U showed a self-cleavage of 0.35.
Variant A18G A21G A35G U51G U69C U72C has a self-cleavage of 1.33.
Work on A18U C27A U69A yielded a self-cleavage of 0.08.
Work on A18G C68U U72C yielded a self-cleavage of 0.36.
Variant A18G A28C C38U U43C A64G has a self-cleavage of 0.06.
Work on A18U U25C C27U A64G yielded a self-cleavage of 0.16.
Variant A18G A35U U78C has a self-cleavage of 0.15.
With A18G A45G U76C U78C the self-cleavage was 0.51.
In the case of A18G A47G U60C G70U, the self-cleavage is reported as 0.1.
A18G U31A U51C U67C U72C gave a self-cleavage of 0.12.
A18U C23U U26C gave a self-cleavage of 0.22.
For A18U U25C A35G, the self-cleavage was 0.17.
For A18U A45U U72C, the self-cleavage was 0.18.
